# Out of some 110,000 compounds screened, about 230 (0.21%) showed an effect of 50% or more. The list shows a part of the results.
# Molecular target: DPAP1 (Plasmodium falciparum, UniProt Q8IIJ9)
# Assay: primary screen, percent inhibition; read by cleavage of a fluorogenic dipeptide substrate; higher = more effect of the substance
# Design: species or system P. falciparum D10 trophozoite lysates; single well
# 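Note: 30 min substrate incubation versus DMSO and 10 µM JCP410 controls.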
# DPAP1, sequence (Q8IIJ9 whole entry, looked up): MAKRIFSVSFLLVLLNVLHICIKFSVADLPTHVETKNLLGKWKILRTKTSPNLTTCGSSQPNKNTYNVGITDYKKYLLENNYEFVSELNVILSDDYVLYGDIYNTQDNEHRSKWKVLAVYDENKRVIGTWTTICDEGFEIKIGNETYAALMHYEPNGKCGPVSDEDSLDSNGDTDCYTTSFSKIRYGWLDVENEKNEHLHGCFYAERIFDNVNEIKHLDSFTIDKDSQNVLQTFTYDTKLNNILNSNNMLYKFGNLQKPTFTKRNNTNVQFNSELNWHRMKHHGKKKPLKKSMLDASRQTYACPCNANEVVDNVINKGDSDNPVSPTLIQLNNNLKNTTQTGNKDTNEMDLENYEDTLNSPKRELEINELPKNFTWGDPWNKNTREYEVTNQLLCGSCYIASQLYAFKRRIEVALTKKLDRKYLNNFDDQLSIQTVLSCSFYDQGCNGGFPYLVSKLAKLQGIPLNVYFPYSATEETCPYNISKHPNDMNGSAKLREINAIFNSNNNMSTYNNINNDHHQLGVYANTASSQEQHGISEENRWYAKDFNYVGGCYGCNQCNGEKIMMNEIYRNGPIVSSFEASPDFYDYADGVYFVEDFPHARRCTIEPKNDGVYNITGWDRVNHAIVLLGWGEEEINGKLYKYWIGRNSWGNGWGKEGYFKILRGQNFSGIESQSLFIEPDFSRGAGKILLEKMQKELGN
row,SMILES,% Inhibition @ 10 uM [%]
1,Cc1ccccc1CSc1c[nH]c2ccccc12,10.5
2,COCCCNC(=O)/C(C#N)=C/c1c(Oc2ccccc2Cl)nc2ccccn2c1=O,-5.11
3,Nc1c(-c2nc(-c3ccncc3)no2)nnn1-c1ccccc1C(F)(F)F,4.73
4,N#CC1=C(N)OC2=C(C(=O)CC(c3ccccc3)C2)C1c1ccccc1C(F)(F)F (stereo not shown),0.751
5,O=C(Nc1nc(-c2ccc(Br)cc2)cs1)C1CCC1,1.14
6,C=CCSc1nc(O)c2c(n1)OC(N)=C(C#N)C2c1ccccc1 (stereo not shown),-2.14
7,CN(C)c1cc(NC(=O)CNC(C)(C)CC(C)(C)C)c2ccccc2n1,0.611
8,O=C(c1ccc(C(=O)N2CCN(c3ccccc3)CC2)cc1)N1CCN(c2ccccc2)CC1,0.815
9,CCOc1ccc2[nH]c(SCC(=O)C(C)(C)C)nc2c1,16.8
10,Cc1ccc(-c2cc(C(=O)O)c3ccccc3n2)o1,10.6
11,O=C(NCC1CCCO1)c1cnn2c(C(F)(F)F)cc(-c3ccc4c(c3)OCO4)nc12 (stereo not shown),2.06
12,Cc1nn(CC(=O)NCCc2cccs2)c(=O)c2cc3cc(F)ccc3n12,-1.7
13,CCOc1ccc(N2C(=O)C(C)SC23C(=O)Nc2ccccc23)cc1 (stereo not shown),2.09
14,CC1=C(C(=O)OC2CCCCCC2)C(c2ccc(Cl)c(Cl)c2)NC(=O)N1 (stereo not shown),7.24
15,CC12CC3CC(C)(C1)CC(CC(N)=O)(C3)C2,-5.51
16,CC1=NN2C(=N)/C(=C\c3ccc(SC4CCCCC4)o3)C(=O)N=C2S1,-4.96
17,NC(=O)Nc1ccc2c(c1)Nc1ccccc1CC2,-0.736
18,N#CC1=C(N)OC2=C(C(=O)c3ccccc3C2=O)C1c1ccc2ccccc2c1 (stereo not shown),2.91
19,COc1ccc(OCC(=O)Nc2ccc(F)c(Cl)c2)cc1,8.06
20,CCCSc1nnc2c(n1)[nH]c1c(C)cccc12,6.86
21,O=C(Cn1ncc2c1-c1ccccc1OC2)NCCN1CCN(Cc2ccccc2)CC1,4.16
22,COC(=O)c1sc(N2C(=O)c3oc4ccccc4c(=O)c3C2c2ccc(C(C)(C)C)cc2)nc1C (stereo not shown),-1.86

row,SMILES,% Inhibition @ 10 uM [%]
1,Brc1ccccc1CN1CCOCC1,-5.42
2,Fc1ccccc1-c1ccc(CNCCSc2nnnn2-c2ccccc2)o1,-1.31
3,CN(CCCNCc1c(C(=O)O)n(Cc2ccc(F)cc2Cl)c2ccccc12)Cc1ccccc1,0.277
4,O=C(Nc1sc2c(c1C(=O)N1CCOCC1)CCCCC2)c1ccccc1,5.79
5,COc1ccc(Nc2nc(Cl)nc(Nc3ccc(C)cc3)n2)cc1,-1.86
6,CCOc1ccc(/C=C/C(=O)Nc2nnc(Cc3ccc(Cl)cc3)s2)cc1OC,-5.44
7,CCCNC(=O)c1oc2ccc3c(c2c1C)C(O)CC(C)(C)O3 (stereo not shown),3.47
8,Cc1ccc(C(=O)Nc2nc(-c3nnn(-c4ccc(F)cc4)c3C)ns2)cc1C,2.99
9,O=C(/C=C/c1ccco1)NC(=S)N1CCCCC1,4.88
10,COc1ccc(C(=O)N2c3ccc(F)cc3CCC2C)cc1OC (stereo not shown),-7.15
11,CC/N=c1\c(NC(=O)Cc2ccccc2)c(O)oc2ccccc12,2.5
12,Cc1noc(/C=C/N(C)C)c1S(=O)(=O)N1CCCC(C(=O)NCCc2ccccc2)C1 (stereo not shown),-4.69
13,Cc1cc(C)cc(C=C2C(=O)c3ccccc3C2=O)c1,2.6
14,Cc1cc(=O)[nH]c(=O)n1-c1ccccc1,-1.42
15,O=C(CN1CCCCCC1)Nc1ccc(-c2ccccc2)cc1,1.35
16,FC(F)(F)c1cccc(CN2CCN(c3cccc(Cl)c3)CC2)c1,-0.127
17,C=CCN(Cc1nc(-c2ccc(OC)c(OC)c2)no1)S(=O)(=O)c1c(C)cc(C)cc1C,0.758
18,O=C(O)c1cc(-c2cccs2)nc2[nH]nc(-c3ccc(Br)cc3)c12,-5.42
19,Fc1ccc(CN2CCN(c3cccc(C(F)(F)F)c3)CC2)cc1Br,1.27
20,CCn1c2ccccc2c2nnc(N3CCN(C(=O)c4ccco4)CC3)nc21,1.96
21,CC(=O)c1ccc2c(c1)CC(C)C(=O)N2C (stereo not shown),-1.43
22,CCC(C)NC(=O)c1ccccc1NC(=O)CN(c1cccc(Cl)c1)S(C)(=O)=O (stereo not shown),-2.32

row,SMILES,% Inhibition @ 10 uM [%]
1,COc1ccc(Cl)cc1NC(=O)c1cc2n(n1)C(C(F)(F)F)CC(c1ccco1)N2 (stereo not shown),0.812
2,O=C(NCCC1=CCCCC1)Nc1cccc2ccccc12,1.88
3,CNC(=O)COc1ccc(C23CC4CC(CC(C4)C2)C3)cc1,-4.23
4,Cc1cc(C)n(CC(=O)Nc2ccccc2)n1,-6.99
5,COCCCn1c(SC2CCOC2=O)nc2c(sc3ccccc32)c1=O (stereo not shown),-0.975
6,CCn1cc(C(=O)Nc2ccccc2C(=O)O)cn1,12.2
7,OC1(c2ccc(Br)cc2)CCN(C2CCC(c3ccccc3)CC2)CC1 (stereo not shown),-2.95
8,CCOC(=O)c1c(C)[nH]c(-c2ccccc2)c1-c1ccccc1,-1.77
9,CCN(CC)S(=O)(=O)c1ccc(-c2csc(Nc3cccc(OC)c3)n2)cc1,-0.591
10,Cc1ccccc1-c1nc(CS(=O)(=O)CC(=O)N(C)C2CCCCC2)c(C)o1,2.99
11,Cc1onc(-c2ccccc2)c1C(=O)Nc1sc2c(c1C#N)CCCC2,4
12,COc1ccc(C2CC3=Nc4ccccc4N(C(C)=O)C(c4ccco4)C3=C(O)C2)cc1 (stereo not shown),0.76
13,N#C/C(=C\c1ccc(Cl)cc1)c1nc(-c2ccc(Cl)c(Cl)c2)cs1,-10.1
14,O=C(O)CSc1ccc(C(=O)N2CCOCC2)cc1[N+](=O)[O-],0.00784
15,CCOC(=O)C1CCCCN1Cc1cccc(Br)c1 (stereo not shown),-5.41
16,O=C1CC(c2nc3ccccc3n2Cc2ccccc2)CN1c1ccccc1 (stereo not shown),1.92
17,O=C(Nc1ccccc1C(=O)NCCCCO)c1ccco1,1.05
18,CCOC(=O)C1=C(CC)OC(N)=C(C#N)C1c1cccc(F)c1 (stereo not shown),-1.38
19,O=C(Cn1ncc2ccsc2c1=O)NCc1ccc2c(c1)OCO2,7.96
20,OC1=C2C(=Nc3nc4ccccc4n3C2c2ccccc2O)CC(c2ccco2)C1 (stereo not shown),0.221

# Reference: paper PMC6919601, “Identification of Plasmodium dipeptidyl aminopeptidase allosteric inhibitors by high throughput screening” (PLoS ONE, 2019)
